Measurements: the supplement of paper PMC4604168 (melanoma cell lines)
The other results are listed elsewhere or left out. Many values rest on one well or one pass, so single values are uncertain.

Experiments:
Test in all cases: cell count relative to DMSO control; melanoma cells; higher = more viable cells
Conditions in all cases: library dose: low library concentration; 72 h
[1] = test system: WM115
[2] = test system: WM1716
[3] = test system: WM1745
[4] = test system: WM3526
[5] = test system: WM3619
[6] = test system: WM451Lu
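Note: cell number obtained by counting DAPI-stained nuclei in high-throughput microscope images with image analysis software, screen run in 1,536-well plates.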

| SMILES | cell count [1] | cell count [2] | cell count [3] | cell count [4] | cell count [5] | cell count [6] |
| --- | --- | --- | --- | --- | --- | --- |
| CC(=O)O[C@@]12CO[C@@H]1C[C@H](O)[C@@]1(C)C(=O)[C@H](O)C3=C(C)[C@@H](OC(=O)[C@H](O)[C@@H](NC(=O)OC(C)(C)C)c4ccccc4)C[C@@](O)([C@@H](OC(=O)c4ccccc4)[C@H]21)C3(C)C [Docetaxel] + Nc1cccc2c1CN(C1CCC(=O)NC1=O)C2=O [lenalidomide] (first compound 0.0001 µM, partner dose 1 µM) | 70.6% | 54.2% | 53.5% | 40.5% | 75.2% | 62.5% |
| Nc1ccn([C@@H]2O[C@H](CO)[C@@H](O)C2(F)F)c(=O)n1 [gemcitabine] + CN(NC(=O)CC(=O)NN(C)C(=S)c1ccccc1)C(=S)c1ccccc1 [STA4783] (first compound 0.0004 µM, partner dose 0.006 µM) | 88.2% | 73% | 58.1% | 96.4% | 58.7% | 102% |
| CC(=O)c1c(C)c2cnc(Nc3ccc(N4CCNCC4)cn3)nc2n(C2CCCC2)c1=O [palbociclib] + COc1ccc(Cl)c(Nc2nc3ccccc3nc2NS(=O)(=O)c2cccc(NC(=O)C(C)(C)N)c2)c1 [XL147] (first compound 0.04 µM, partner dose 0.8 µM) | 95.4% | 67.7% | 88.3% | 51.8% | 80.9% | 87.1% |
| Nc1ccn([C@@H]2O[C@H](CO)[C@@H](O)C2(F)F)c(=O)n1 [gemcitabine] + Cn1cc(/C=C2\C(=O)Nc3cccnc32)c2ccccc21 [GW441756] (first compound 0.0004 µM, partner dose 0.4 µM) | 93.7% | 106% | 87.8% | 116% | 88.6% | 116% |
| CO[C@H]1C[C@@H]2CC[C@@H](C)[C@@](O)(O2)C(=O)C(=O)N2CCCC[C@H]2C(=O)O[C@H]([C@H](C)C[C@@H]2CC[C@@H](OCCO)[C@H](OC)C2)CC(=O)[C@H](C)/C=C(\C)[C@@H](O)[C@@H](OC)C(=O)[C@H](C)C[C@H](C)/C=C/C=C/C=C/1C [everolimus] + O=C(Nc1cccc(Cl)c1)Nc1ncc(CCNc2ncnc3ccsc23)s1 [SNS314] (first compound 0.02 µM, partner dose 0.0008 µM) | 67.4% | 90.2% | 82.4% | 74.6% | 61.9% | 68.9% |
| CC(=O)O[C@@]12CO[C@@H]1C[C@H](O)[C@@]1(C)C(=O)[C@H](O)C3=C(C)[C@@H](OC(=O)[C@H](O)[C@@H](NC(=O)OC(C)(C)C)c4ccccc4)C[C@@](O)([C@@H](OC(=O)c4ccccc4)[C@H]21)C3(C)C [Docetaxel] + Cn1cc(/C=C2\C(=O)Nc3cccnc32)c2ccccc21 [GW441756] (first compound 0.0001 µM, partner dose 0.4 µM) | 68.1% | 34.5% | 54.9% | 37.3% | 69.2% | 50.8% |
| Nc1ccn([C@@H]2O[C@H](CO)[C@@H](O)C2(F)F)c(=O)n1 [gemcitabine] + Nc1ncn([C@H]2C[C@H](O)[C@@H](CO)O2)c(=O)n1 [decitabine] (first compound 0.0004 µM, partner dose 0.1 µM) | 75.9% | 74.8% | 79% | 111% | 61.2% | 92.9% |
| Nc1nc(F)nc2c1ncn2[C@@H]1O[C@H](CO)[C@@H](O)[C@@H]1O [fludarabine] + O=C(O)C(=O)Nc1sc2c(c1C(=O)O)CCNC2 [TCS401] (first compound 0.2 µM, partner dose 1.66667 µM) | 93.3% | 107% | 93.5% | 37.7% | 120% | 44.4% |
| CC(=O)c1c(C)c2cnc(Nc3ccc(N4CCNCC4)cn3)nc2n(C2CCCC2)c1=O [palbociclib] + Cc1cc([N+](=O)[O-])ccc1NS(=O)(=O)c1cc(Cl)ccc1Cl [FH535] (first compound 0.04 µM, partner dose 1 µM) | 66.3% | 55.6% | 72.1% | 51.6% | 75.5% | 83.4% |
| CC(=O)c1c(C)c2cnc(Nc3ccc(N4CCNCC4)cn3)nc2n(C2CCCC2)c1=O [palbociclib] + COc1ccc(COc2ccc(Cc3cnc(N)nc3N)cc2OC)cc1 [GW2580] (first compound 0.04 µM, partner dose 1 µM) | 72.9% | 55.7% | 66.3% | 74.8% | 81.2% | 78.4% |
